Measurements reported in paper PMC10668032.
Some of the results follow. At the low end of the ranking the order means little.

biological target: SIX1-Q177R homeodomain (UniProt Q15475); assay: universal protein binding microarray; conditions: Universal all-10-mer PBM (8x60K, AMADID 030236), 300 nM GST-tagged protein, Alexa Fluor 488 anti-GST; buffer, salt, pH and temperature not stated; high values mean tight binding; most listed sequences are background and not binding sites; double strand, one strand shown

Sequence	binding signal [E-score]
CAGCTATA	0.0012
AGCTTTGA	-0.16
CCCCATTA	0.0622
TATGCTCA	-0.124
CCCCAGGA	0.173
CGGGGTCC	0.241
ACTTTCCC	-0.0132
CTGAACGA	-0.0754
ACTGAACG	-0.0395
CACAGGGC	-0.213
TGAGACAA	-0.116
GCAGAAAC	-0.144
ATACGGTC	-0.0513
CCATGTAC	0.0995
CCGAAGAG	-0.189
ACTGCGTA	0.0362
ACAGGCGT	-0.0638
AACCGGCT	0.0327
AAGAACAA	-0.0767
ATAAATAA	-0.142
AGGAGTAT	0.168
AGCAGCAA	-0.198
CATTGAGG	-0.207
GTACACCA	0.485
CCTGCACC	0.16

Sequence	binding signal [E-score]
ACATTCGA	-0.32
AACTAAAA	-0.0709
ATAAACAC	0.365
AGCTATAA	-0.082
CCCGACGA	0.0413
CGACCTCC	0.0382
AAAGTCCG	-0.0288
TCAGGCAA	-0.107
ATTCTTTG	-0.0728
TTGCCAAA	-0.0705
ACGAATCC	0.143
ACTGTTAT	-0.249
CTAATGCC	-0.142
CAGCCTAC	-0.0633
CCGAACCA	0.0215
AAGTGGGA	-0.0859
TAGCAACA	0.0936
ACCTCCGA	0.172
CTCGGAAC	-0.00483
CAAATCCA	-0.153
TAACACAA	0.216
CTCTTTAC	-0.0821
CGTACCAC	-0.192
CGCCCCCG	0.13
AGTAGCAC	0.105

Sequence	binding signal [E-score]
AATGGGAA	-0.234
GACTCGCA	-0.0592
AGCGCCGC	0.0139
CTACTATA	-0.164
AGGCTGGA	-0.193
ATAGCCTA	-0.0733
GAATCCTA	-0.216
AACGTGCT	-0.0849
CATAACAG	-0.208
CTCCGTCC	-0.11
AATCATGA	-0.196
ATGCGTTA	0.0192
GGGCAGTA	-0.0958
ACTCACAG	-0.1
TCTAACAA	-0.243
ACTCTCAC	-0.0145
CGGACAGC	-0.237
ATGAACAC	0.4
CTCGCACA	-0.0156
CCCCCTGA	0.277
CTTCGATA	0.0255
ACATACAT	-0.22
CTGGTCTC	-0.112
ATCTCTAC	-0.098
AGCATTCG	-0.173

Sequence	binding signal [E-score]
ACAAATAT	-0.0398
GGGGCTAA	0.0859
CATGCACA	-0.013
GCCGTGCC	-0.121
AATGTTTG	-0.139
TCATCTAA	-0.207
ACATCATA	-0.111
CCGTAAAG	0.0924
AGCTATCA	-0.128
AAGCGTCT	0.0128
GACTGACC	-0.0752
ATCAGGCC	-0.106
TCACGCGA	-0.0622
CACGAATA	0.0166
ACGCTCGC	0.0296
ACGTGATG	0.0525
CGGTAGAA	-0.0834
AGAACCAA	-0.249
ATGCGGTA	0.0262
ACAATAGA	-0.116
CGCGAATA	0.0507
AACGTGCA	-0.0942
CGCCTCTC	-0.102
CTAGAGTA	-0.0372
GTCTGACA	0.206

Sequence	binding signal [E-score]
GTGGTACA	0.122
ACAGTTAT	-0.138
CAAGTGTG	0.131
CCGGCGTA	0.0832
AGCGTCCG	0.11
CGTTACTC	0.002
CGCCGCGA	0.0151
GAAGTACC	0.0327
CCCCTCAA	0.161
CCAGACAC	0.37
GCACACGA	0.214
CCCTTTAA	0.138
CAGTGGAG	0.0257
AACATGTT	-0.352
CAGGTACC	0.0178
GAGCTCCA	-0.275
AAAAGCCA	-0.259
CTTTACGA	-0.188
GGCGAGCA	-0.0485
CTAGGGTC	0.0399
CACCCGGC	0.36
CACCGTTA	0.24
CCATATCA	-0.0222
ACATCCTC	0.042
ACCTTAGA	-0.015

Sequence	binding signal [E-score]
AATAGCCA	-0.185
CCGCGCTC	0.0188
TGACTTAA	-0.157
CAAAACGG	-0.113
ACCTTGCC	0.0455
GGGCGGGA	0.0298
CTATATAG	0.0157
GTGTAACA	0.445
ACGGGCCA	-0.0699
CAGGAGTC	0.142
AAGCACCT	0.0486
CCAAAATC	0.0242
GACGCGTA	0.0154
AATCTCAA	-0.123
ATTTATCG	-0.0438
AATGGGCC	-0.19
GATGAATA	-0.0402
CCGTCCGA	-0.17
CACAATGG	0.061
CGCTAGCG	-0.223
ATATGCTA	-0.189
ATCATCTG	0.0713
CGCTCGCA	-0.0199
GACACAAA	0.224
CTCGTCCA	-0.253

Sequence	binding signal [E-score]
ACTCGAAA	-0.161
TAGTTTAA	0.0641
ACTGCCCC	-0.0883
CATTCTGC	-0.295
CTTGCTCC	-0.258
GATTACAA	-0.222
CTGGGGTA	0.194
AGAGCCCT	-0.11
CACGGTCG	0.109
ATGTAGCG	-0.225
CACGAGTC	0.237
CTGTCTAC	-0.2
CGTACGCA	0.0917
CCTTTCTC	-0.208
GAAAGGGA	-0.14
CCCACATC	-0.152
AAATATGA	0.00306
AGCGAGCA	-0.142
CTAGTAAA	-0.0855
AACCTTCT	-0.0835
CCCTTTGA	0.0135
CACGAAAG	0.16
